Reference: PubChem BioAssay AID1030 (National Center for Advancing Translational Sciences (NCATS), 2008)
Among all 220,000 compounds or so, about 16,000 (7.3%) were called active. The inconclusive results got no clear call from the source; some entries with a clear call stand among them for comparison. Calls come from the whole dose curve; as a rule, active = well fitted inhibition curve with a large enough effect (not every such curve was filed as active); inconclusive = small, poorly fitted or top-dose-only effect, or another doubt; inactive = no such curve, though single readings can be large or run the other way. Potencies of inconclusive entries are left out as doubtful fits.

What follows are compounds tested against Aldehyde dehydrogenase 1A1 (Homo sapiens) (UniProt P00352) (assay: qHTS Assay for Inhibitors of Aldehyde Dehydrogenase 1 (ALDH1A1)). Conditions: Purified ALDH1A1, NADH fluorescence, propionaldehyde substrate; series mostly up to 75.3 µM.
Potency is the fitted concentration of half-maximal effect; tags give direction and shape of the fitted curve.

Chain of UniProt P00352 (P00352 whole entry, looked up): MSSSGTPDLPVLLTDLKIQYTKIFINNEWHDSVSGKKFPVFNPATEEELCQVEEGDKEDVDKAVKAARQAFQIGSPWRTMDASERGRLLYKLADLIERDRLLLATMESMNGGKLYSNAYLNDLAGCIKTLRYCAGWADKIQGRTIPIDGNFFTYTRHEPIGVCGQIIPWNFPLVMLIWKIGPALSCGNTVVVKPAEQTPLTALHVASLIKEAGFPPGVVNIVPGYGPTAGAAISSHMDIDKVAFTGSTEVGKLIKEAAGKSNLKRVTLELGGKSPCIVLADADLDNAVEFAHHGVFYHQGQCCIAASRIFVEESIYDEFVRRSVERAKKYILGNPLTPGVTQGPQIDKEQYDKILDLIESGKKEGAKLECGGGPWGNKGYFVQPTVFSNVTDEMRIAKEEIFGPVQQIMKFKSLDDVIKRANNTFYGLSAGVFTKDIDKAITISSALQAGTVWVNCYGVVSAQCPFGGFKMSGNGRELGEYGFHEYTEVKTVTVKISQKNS

| SMILES | Potency |
| --- | --- |
| CCOc1ccc(-c2c(=O)n(OCc3ccc([N+](=O)[O-])cc3)c3ccccc3[n+]2[O-])cc1 | active: 20 µM |
| CC(C)CCNC(=O)C1(c2cccs2)CCOCC1 | inactive |
| COc1ccccc1CC(=O)N1CCN(c2ccccn2)CC1 | inconclusive [inhibitor, single point] |
| CCn1c(CNc2ccc(C)cc2C)nnc1SCC(=O)N1CCCc2ccccc21 | active: 7.08 µM |
| Fc1ccc(CSc2nnc(-c3cc4c(s3)-c3ccccc3CC4)o2)cc1 | inconclusive [inhibitor, partial curve] |
| Cc1ccnc(NC(c2cccnc2)c2ccc3cccnc3c2O)c1 (stereo not drawn) | active: 10 µM |
| COc1cc(/C=N/OCC(=O)NC23CC4CC(CC(C4)C2)C3)ccc1OCc1ccccc1 | active: 22.4 µM |
| Cc1cc(/C=C(/C#N)c2nc3ccccc3[nH]2)c(C)n1-c1cc(C(=O)O)cc(C(=O)O)c1 | inactive |
| CCc1nnc(NC(=O)CSc2nc(-c3ccc(F)cc3)cc(-c3ccccc3)c2C#N)s1 | active: 10 µM |
| CCn1nnnc1-c1ccc(OC)c(S(=O)(=O)NCc2ccccc2)c1 | active: 1.89 µM |
| O=C1c2cccc3cccc(c23)C(=O)N1OS(=O)(=O)c1ccc(Br)cc1 | inconclusive [inhibitor, partial curve] |
| Cc1c(O)ccc(NS(=O)(=O)c2ccccc2)c1C | inconclusive [inhibitor, partial curve] |
| COc1ccc(CCNC(=O)Cn2c(=O)n(CC3CCCO3)c(=O)c3cc(OC)c(OC)cc32)cc1OC (stereo not drawn) | inconclusive [inhibitor, single point] |
| COc1cc(C(C(=O)NC2CCCCC2)N(Cc2ccco2)C(=O)c2cnccn2)cc(OC)c1OC (stereo not drawn) | inactive |
| NC(N)=NCCCC(NC(=O)C(N)Cc1ccc(O)cc1)C(=O)O (stereo not drawn) | inactive |
| COC(=O)Cc1c(C)c2ccc(OCC(C)=O)c(C)c2oc1=O | inconclusive [inhibitor, partial curve] |
| O=c1c2c(nc3n1CCCCC3)sc1c(O)c(Br)ccc12 | inconclusive [inhibitor, single point] |
| Cc1cccc(Nc2nc(-c3ccc4c(c3)OCCO4)cs2)c1 | active: 20 µM |
| CCOC(=O)NC1(Nc2ccc(Cl)cn2)Oc2ccccc2O1 | active: 12.6 µM |
| O=C(c1cccc(F)c1)N1CCC2(CC1)CCN(c1ccccc1)CC2 | inactive |
| Cn1cc(P(=S)(N2CCOCC2)N2CCOCC2)cc1P(=O)(N1CCOCC1)N1CCOCC1 | inconclusive [inhibitor, single point] |
| CCN(CC(=O)NC(=O)NCc1ccco1)Cc1nc2ccccc2c(=O)[nH]1 | active: 10 µM |
| CC(=S)/C=C1\Sc2ccccc2N1C | inconclusive [inhibitor, single point] |
| O=S(=O)(c1ccccc1)c1nc(-c2ccccc2Cl)oc1NCCN1CCOCC1 | inconclusive [inhibitor, partial curve] |
| CC(NC(=O)c1nn(C)c(=O)c2ccccc12)c1ccccc1 (stereo not drawn) | active: 15.8 µM |

| SMILES | Potency |
| --- | --- |
| CC(=O)/C=C(\C)Nc1c(C)n(C)n(-c2ccccc2)c1=O | inactive |
| Cc1c(OCc2ccccc2)c(=O)ccn1Cc1ccccc1 | inconclusive [inhibitor, single point] |
| CCCC(C)NC(=O)CSc1nc2ccc(C)cc2[nH]1 (stereo not drawn) | inactive |
| Cc1ccc(-c2nc3ccccc3[nH]2)cc1NC(=O)c1sc2ccccc2c1Cl | inconclusive [inhibitor, single point] |
| Cc1ccc(C)n1-c1ccc(N(C)C)cc1 | inconclusive [inhibitor, single point] |
| Cc1ccc(S(=O)(=O)N2CCCCC2)cc1NC(=O)CNCc1ccco1 | inconclusive [inhibitor, partial curve] |
| Cc1cccc(C)c1N1C(=O)C2ON(c3ccccc3)C(c3ccncc3)C2C1=O (stereo not drawn) | inconclusive [inhibitor, single point] |
| O=C(Nc1ccccc1)C1Cc2ccccc2CN1C(=O)c1ccco1 (stereo not drawn) | inactive |
| CCOc1ncccc1C(=O)N1CCN(C(=O)c2ccccc2)CC1 | inconclusive [inhibitor, single point] |
| Cc1ccc(-c2csc(NC(=O)c3ccc4c(=O)n5c(nc4c3)CCCCC5)n2)cc1 | inactive |
| COc1ccc(C(=O)N2CCN(c3ccc([N+](=O)[O-])c(-n4nc(C)cc4C)c3)CC2)cc1 | inconclusive [inhibitor, partial curve] |
| Cc1ccc(-c2nc(C(=O)O)cs2)cc1 | inconclusive [inhibitor, single point] |
| CC(CCc1ccccc1)NC(=O)COc1ccc(S(=O)(=O)N2CCOCC2)cc1[N+](=O)[O-] (stereo not drawn) | inconclusive [inhibitor, single point] |
| O=C1C=C(NCCc2cc(Br)c(O)c(Br)c2)C(=O)c2ncccc21 | active: 1.58 µM |
| COc1ccc(C(=O)NC(C)c2ccccc2)cc1Br (stereo not drawn) | inconclusive [inhibitor, single point] |
| CCOC(=O)c1c(N)n(CC(C)NC(=O)C2CC2)c2nc3ccccc3nc12 (stereo not drawn) | inconclusive [inhibitor, partial curve] |
| O=C(N/N=C/c1ccc([N+](=O)[O-])o1)c1cccc(S(=O)(=O)N2CCOCC2)c1 | inconclusive [inhibitor, partial curve] |
| O=C(c1nn(Cc2ccccc2)c(=O)c2ccccc12)N1CCN(C/C=C/c2ccccc2)CC1 | active: 12.6 µM |
| CCCOc1ccc(C(=O)NCCc2ccccc2)cc1 | inactive |
| Cc1cc(NC(=O)c2cc(-c3ccco3)on2)nn1Cc1ccc(Cl)cc1 | inconclusive [inhibitor, single point] |
| CC(C)(C)C(=O)N1N=C(c2ccc(NS(C)(=O)=O)cc2)CC1c1cccs1 (stereo not drawn) | inconclusive [inhibitor, single point] |
| Cn1c(=O)[nH]c(=O)c2c1nc(Br)n2CCSc1ncccn1 | inactive |
| COC(=O)c1scc(C)c1-n1ccc(C(=O)C(=O)N(C)C)c1 | inactive |
| ClC1(Cl)CC1Cn1c(C2CC2)nc2ccccc21 (stereo not drawn) | active: 10 µM |
| Cc1cc(NC(=O)c2ccc(N3C(=O)C4C5C=CC(C5)C4C3=O)cc2)no1 (stereo not drawn) | inconclusive [inhibitor, single point] |

| SMILES | Potency |
| --- | --- |
| CCOC(=O)c1cnc(-n2nc(C)cc2C)nc1Nc1ccc(N(C)C)cc1 | active: 20 µM |
| O=C(CSc1ccc2nnc(-c3ccccc3)n2n1)N1CCCc2ccccc21 | inactive |
| CCOc1ccc(-n2cc(-c3ccc(OC)c(OC)c3)[nH]c2=S)cc1 | inconclusive [inhibitor, single point] |
| CCCn1c(SCC(=O)Nc2cc(S(=O)(=O)N3CCOCC3)ccc2OC)n[nH]c1=O | inconclusive [inhibitor, single point] |
| O=C(NCc1ccco1)c1cccc(NC(=O)c2ccco2)c1 | inconclusive [inhibitor, single point] |
| Cc1noc(C)c1CSc1nc2ccccc2c(=O)n1-c1ccc(F)cc1F | active: 8.91 µM |
| CCN(Cc1ccccc1)S(=O)(=O)c1cc(C(=O)NCC2CCCCC2)ccc1OC | inconclusive [inhibitor, full curve] |
| Cc1[nH]nc2c1C(c1cccs1)C1=C(CC(C)(C)CC1=O)N2 (stereo not drawn) | inconclusive [inhibitor, partial curve] |
| COc1ccc(CN(C(=O)c2ccc(CN3CCOCC3)o2)C(C(=O)NCC2CCCO2)c2ccc(F)cc2)cc1 (stereo not drawn) | inconclusive [inhibitor, single point] |
| COc1ccc(-n2nnnc2SCC(=O)Nc2nnc(C)s2)cc1 | inconclusive [inhibitor, single point] |
| Cc1ccc(S(=O)(=O)NCCc2nnc3ccc(SCC(=O)Nc4nc5ccccc5s4)nn23)cc1 | inconclusive [inhibitor, single point] |
| CCOC(=O)c1c(NC(=O)c2ccccc2N(C)S(=O)(=O)c2ccccc2)sc2c1CCCC2 | inconclusive [inhibitor, partial curve] |
| Cn1c(Cn2c(=O)sc3ccccc32)nnc1SCC(=O)NCc1ccccc1 | inactive |
| Cc1ccc(N2C(=O)CC(Cc3cccc(C)c3)C2=O)cc1 (stereo not drawn) | inconclusive [inhibitor, single point] |
| O=C(NC12CC3CC(CC(C3)C1)C2)c1ccccc1O | inconclusive [inhibitor, partial curve] |
| Nc1nc(-c2ccco2)nn1C(=O)c1ccc(F)cc1 | inactive |
| Cn1c(NCc2ccco2)nc2c1c(=O)n(Cc1ccc(Cl)c(Cl)c1)c(=O)n2C | inconclusive [inhibitor, single point] |
| Cc1cc(C(=O)Nc2nnc(-c3ccccc3)s2)no1 | inactive |
| Cc1nn(C)c(C(=O)NN)c1Cl | inactive |
| CC(C)C1Cc2nc(Cl)c(C#N)cc2CO1 (stereo not drawn) | inactive |
| C=CCN1C(=O)/C(=C2/Sc3ccccc3N2CCCS(=O)(=O)O)SC1=S | inconclusive [inhibitor, partial curve] |
| Cc1cc2nc(-c3ccc(SCC(=O)Nc4ccc(S(=O)(=O)NC5CC5)cc4)nc3)[nH]c2cc1C | inconclusive [inhibitor, single point] |
| Cc1ccc(S(=O)(=O)c2ccc(Cl)cc2)cc1S(=O)(=O)NC(C)C(=O)O (stereo not drawn) | inactive |
